Experimental data taken from PubChem BioAssay AID1240 (Sanford-Burnham Center for Chemical Genomics, 2008).
The campaign covered roughly 50,000 compounds. About 800 (1.6%) showed an effect of 50% or more. The list shows a part of the results.

What follows are molecules tested against Bcl-2-like protein 10 (Homo sapiens) (UniProt Q9HD36) (assay: Phenotype converters, Bcl-B/TR3 peptide binding displacement, primary biochemical FP (AID 1240;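 further: 0% = Bcl-B with tracer peptide and DMSO and 100% = tracer peptide lacking Bcl-B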)). Conditions: GST-Bcl-B / FITC-TR3 peptide fluorescence polarization; stronger effect = higher value; compound at 3.75 mg/L.
Chain of UniProt Q9HD36 (Q9HD36 whole entry, looked up): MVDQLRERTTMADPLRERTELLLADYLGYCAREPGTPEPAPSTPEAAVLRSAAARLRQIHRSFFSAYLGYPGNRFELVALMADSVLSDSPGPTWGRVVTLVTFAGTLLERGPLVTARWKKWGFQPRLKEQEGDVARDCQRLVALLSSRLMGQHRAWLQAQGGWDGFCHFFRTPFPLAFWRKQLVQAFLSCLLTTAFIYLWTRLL

Row | SMILES | displacement
1 | O=C1C2CCCCC2C(=O)N1c1ccc2[nH]c(=S)sc2c1 (stereo not given) | -28.4%
2 | COc1ccc(C(NC(=O)/C=C\c2cccc([N+](=O)[O-])c2)c2ccc(OC)c(OC)c2)cc1OC | -3%
3 | Cc1cc2nc(-c3ccc(NC(=O)c4cccnc4)cc3O)oc2cc1C | -8.9%
4 | Cc1cc(=O)oc2cc3cc(C)n(C)c3cc12 | 9.3%
5 | CCCCCc1nnc(NC(=O)CCCC)s1 | -3.5%
6 | CC(C)(C)c1cc(N2C(=O)C(=O)/C(=C(\O)c3ccccc3)C2c2ccccc2F)no1 (stereo not given) | 0.4%
7 | CN1C(=O)/C(=C2\SC(=S)N(c3ccccc3)C2=O)c2ccccc21 | -6.8%
8 | O=C(Nc1ncccc1Cl)c1cccc(Cl)c1 | -0.6%
9 | O=C(Nc1ccc(-c2nc3ccccc3s2)cc1)c1cc(Br)ccc1Cl | -8.4%
10 | NC(=O)CSc1nc2ccc(NC(=O)c3ccccc3)cc2s1 | -5.8%
11 | O=C(/C=C/c1ccco1)N1CCN(C/C=C/c2ccccc2)CC1 | -3.8%
12 | O=C(CSc1nnnn1-c1ccccc1)Nc1cccc([N+](=O)[O-])c1 | -0.6%
13 | CC(C)(C)c1ccc(S(=O)(=O)Nc2cc(Cl)ccc2Cl)cc1 | 12.4%
14 | COc1ccc(Cl)cc1NC(=O)NS(=O)(=O)c1ccc(C)cc1 | 16.9%
15 | O=C(Nc1ccccc1)c1ccc(S(=O)(=O)N2CCCc3ccccc32)cc1 | -7.8%
16 | CCOc1cc(/C=C(/C#N)C(N)=O)cc(Br)c1O | -101%
17 | COc1ccccc1CC(=O)N1CCN(c2ccc(F)cc2)CC1 | 9.5%
18 | COc1ccccc1C(=O)N1CCN(C(=O)COc2ccc(Cl)cc2)CC1 | 15%
19 | CS(=O)(=O)N(CC(=O)Nc1ccccc1)c1ccc(Br)cc1 | -4.4%
20 | COc1ccc(N=Cc2ccc(Br)s2)c([N+](=O)[O-])c1 | -0.7%
21 | CCN=C1SC(CC(=O)Nc2cccc(C(F)(F)F)c2)C(=O)N1CC (stereo not given) | -3.3%
22 | CN1C(=O)C(=Cc2cn(CC(=O)Nc3ccccc3)c3ccccc23)C(=O)N(C)C1=O | -6.8%
23 | CCOC(=O)C1=C(C)NC(=O)NC1c1cc(OC)c(OC)c(OC)c1 (stereo not given) | 9.3%
24 | CCCOc1ccccc1NC(=O)CC1Nc2cc(C)c(C)cc2NC1=O (stereo not given) | -11.4%

Row | SMILES | displacement
25 | CCC1=NN2C(=N)/C(=C\c3ccc(N(CC)CC)cc3)C(=O)N=C2S1 | -67.5%
26 | CC1=C(C(=O)Nc2ccc(Br)cc2)C(c2ccc(F)cc2)NC(=S)N1 (stereo not given) | 12.5%
27 | Cc1cc(=O)oc2ccc(OCC(=O)Nc3ccc(S(=O)(=O)O)cc3)cc12 | 0.4%
28 | COc1ccc(S(=O)(=O)N(CCO)Cc2ccccc2)cc1 | -15.3%
29 | CCOc1ccc(NC(=O)c2c(-c3ccccc3Cl)noc2C)c([N+](=O)[O-])c1 | -6.9%
30 | O=[N+]([O-])c1ccc(N2CCN(S(=O)(=O)c3ccc(Cl)cc3)CC2)cc1N1CCOCC1 | 9.3%
31 | O=C(NN1C(=O)/C(=C/c2ccccc2)SC1=S)c1cccc(Cl)c1 | -3%
32 | O=C(/C=C/c1ccccc1)Nc1nnc(-c2cccs2)s1 | 1.4%
33 | COc1cccc(/C=N/NC(=O)CCc2c(C)n[nH]c2C)c1 | -2.6%
34 | Cc1cc(N2CCOCC2)c2c(N)ccc(C)c2n1 | 17.3%
35 | CCOC(=O)CCC(C(=O)C(C)C)C(=O)C(C)(C)OC (stereo not given) | 3.9%
36 | COc1ccc(/C=C/C(=O)Nc2ccc(C)cc2C)cc1OC | -3%
37 | COc1ccc(N2C(=O)CC(SC(=N)N3N=C(c4ccc(C)cc4)CC3c3ccc(Br)cc3)C2=O)cc1 (stereo not given) | -1.8%
38 | CCOC(=O)c1cc2c(ccc3oc4c(c32)CCCC4)oc1=O | 1.8%
39 | CCOc1ccc(NC(=O)C2CC2(c2ccccc2C)c2ccccc2C)cc1 (stereo not given) | 0.1%
40 | CN(C)c1ccc(NC(=O)COc2ccc3ccccc3c2)cc1 | 5.6%
41 | COc1ccccc1C1CC(c2c(-c3ccccc3)c3cc(Br)ccc3[nH]c2=O)=NO1 (stereo not given) | 9.2%
42 | Cc1c(C(=O)N(Cc2ccccc2)Cc2ccccc2)cccc1[N+](=O)[O-] | -12.3%
43 | CCOc1cc(/C=c2\sc3n(c2=O)C(c2cccc(OC)c2)C(C(=O)Nc2ccccc2)=C(C)N=3)ccc1O (stereo not given) | 12.6%
44 | O=C(COc1ccc(Cl)cc1)N1CCN(C(=O)c2ccncc2)CC1 | 13.8%
45 | COc1ccc(NS(=O)(=O)c2cc(C(=O)O)ccc2Br)cc1 | -5.8%
46 | O=C(Nc1ccccc1C(=O)NC(Cc1ccccc1)C(=O)O)c1ccccc1 (stereo not given) | 12.1%
47 | COc1ccccc1C(=S)N1CCOCC1 | 8.6%
48 | COc1cc(C#CC#CCN2CCOCC2)ccc1O | 5.8%

Row | SMILES | displacement
49 | O=C(NCc1ccc(Cl)cc1)c1cccc(I)c1 | 10.3%
50 | Cc1ccc(N2C(=O)CC(NC3CCCC(C)C3C)C2=O)cc1 (stereo not given) | 9.7%
51 | CC(=O)Nc1ccccc1NC(=O)COc1ccc(Cl)cc1Br | -1.3%
52 | Cc1nnc(C)n1/N=C\c1ccc(F)cc1 | -0.6%
53 | COc1ccc(C(=O)NCCSc2ccc(C)cc2)cc1 | -8.2%
54 | O=C(c1cccc(F)c1)N1CCN(c2cc(N3CCCC3)c(F)cc2[N+](=O)[O-])CC1 | 6.6%
55 | Cc1[nH]n(-c2ccc(Br)cc2)c(=O)c1C=Nc1ccc(S(=O)(=O)Nc2nccs2)cc1 | 8.9%
56 | C#CCOc1nc(N(c2ccccc2)c2ccccc2)nc(-n2c(C)nc3ccccc32)n1 | -2.9%
57 | COc1ccc(-c2c(C#N)c(N)nc3c2CCCCC3)cc1OC | -2.3%
58 | O=C(C[n+]1ccc(C(=O)NCc2ccccc2)cc1)c1ccc(-c2ccccc2)cc1 | 11.1%
59 | CC1CCN(CCCCOc2ccc(F)cc2)CC1 | -8.5%
60 | Cc1cccc(N2C(=O)C3C(c4ccccc4)C=CC(c4ccccc4)C3C2=O)c1C (stereo not given) | -0.2%
61 | CC(=O)N1C(=O)c2cccc3cccc1c23 | -9%
62 | O=C(Oc1ccc(/C=N/NC(=O)C(O)c2ccccc2)cc1)c1cccc2ccccc12 (stereo not given) | 2.4%
63 | O=C(Cn1c(C(=O)c2ccccc2)nc2ccccc21)c1ccc(Br)cc1 | -4.7%
64 | Cc1ccc2c(N)c(C(=O)c3ccccc3)sc2n1 | 4.6%
65 | COc1ccc(C(=O)Nc2cc(C(F)(F)F)cc(C(F)(F)F)c2)cc1Cl | 7.8%
66 | CCOc1ccc(N2C(=O)S/C(=C\c3ccc(C)o3)C2=O)cc1 | 108%
67 | CCOc1cccc(C(=O)Nc2nnc(COc3ccc(Cl)cc3)s2)c1 | 13%
68 | COc1ccccc1NC(=O)/C=C/c1cc(Br)cs1 | 8.2%
69 | CCCC(=NC(C)C)C1=C(O)CC(C)(C)CC1=O | 5.1%
70 | C=CCNC(=O)C1CC(=O)N(c2ccc(Cl)cc2)C1 (stereo not given) | 6.8%
